The values that follow come from the supplement of paper PMC3334620.

Over roughly 33,000 sequences, “E-score (-0.5 to 0.5)” has its median near -0.041; the highest 2% begin near 0.37. This is one part of the list.

In this assay the target is T1, Ecm22 (UniProt Q05958).
T1 sequence: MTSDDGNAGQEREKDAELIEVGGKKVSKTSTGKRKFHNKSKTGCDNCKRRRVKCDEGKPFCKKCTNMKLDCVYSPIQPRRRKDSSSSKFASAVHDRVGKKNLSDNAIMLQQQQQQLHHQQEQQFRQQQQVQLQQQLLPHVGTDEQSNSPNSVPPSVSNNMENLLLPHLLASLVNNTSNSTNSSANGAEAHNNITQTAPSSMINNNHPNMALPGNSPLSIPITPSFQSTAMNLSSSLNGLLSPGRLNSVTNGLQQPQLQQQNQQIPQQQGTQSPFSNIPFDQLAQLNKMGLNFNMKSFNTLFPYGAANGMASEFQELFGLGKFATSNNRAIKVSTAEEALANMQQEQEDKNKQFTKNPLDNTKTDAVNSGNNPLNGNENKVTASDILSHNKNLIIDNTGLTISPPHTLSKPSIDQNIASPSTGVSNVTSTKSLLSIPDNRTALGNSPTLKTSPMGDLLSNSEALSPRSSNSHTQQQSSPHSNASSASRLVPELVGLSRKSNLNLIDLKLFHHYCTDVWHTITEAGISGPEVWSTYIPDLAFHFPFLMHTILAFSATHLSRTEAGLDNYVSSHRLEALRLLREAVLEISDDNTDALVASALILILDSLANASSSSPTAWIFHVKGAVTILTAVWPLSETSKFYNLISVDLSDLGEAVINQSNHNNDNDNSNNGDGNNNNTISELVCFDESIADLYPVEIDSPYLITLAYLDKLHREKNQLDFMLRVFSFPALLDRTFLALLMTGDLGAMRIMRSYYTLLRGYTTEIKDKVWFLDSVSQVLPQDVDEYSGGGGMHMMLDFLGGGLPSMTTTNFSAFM
Briefly: PBM E-score (8-mer binding enrichment) (E-score (-0.5 to 0.5)); higher = stronger / more preferred TF binding; most listed sequences are background and not binding sites. Conditions: protein concentration: 200 nM; construct: GST-full length. An outline of the steps: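 Full-length yeast transcription factors or their DNA-binding domains, GST-tagged and expressed with PURExpress, were applied at about 100-200 nM to universal all-10-mer Agilent arrays. These arrays had been made double-stranded by primer extension on fresh or once-stripped slides. Detection used fluorescent anti-GST, normalisation used masliner, and E-scores for ungapped eight-base words pooled with reverse complements came from the Universal PBM Analysis Suite.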
Take AATTTCCA: the “PBM E-score” value was -0.0624. CACGCAAA: the “PBM E-score” value is -0.049. GGTAGGCA: the “PBM E-score” value is -0.344. The same measure for AAAAGGGC: -0.214; for AGGTAGAA: -0.0905; for CGAGTTGA: 0.184. The same measure for GCGCATCA: -0.229; for GCACGGAA: -0.094.

Turning to CACTGTCC, the “PBM E-score” value stood at 0.0229. On to CTCTCCGC, for which the “PBM E-score” value was -0.147. As to CATTTGAA, the “PBM E-score” value is -0.126. Turning to AACTGATA, the “PBM E-score” value came out at 0.131. With CTGCAACC, the “PBM E-score” value is -0.218. With GTACTTTA, the “PBM E-score” value was determined as 0.211.

Consider CCCAGCCG, for which the “PBM E-score” value was -0.135. In the case of AATAGATG it was 0.197; in that of GTTAGTTA, 0.191; in that of CGTGCTGC, -0.115. In the case of ACACTCGA it was 0.0864; in that of GCCGAGCC, -0.0669.

For CTACCCGA, the “PBM E-score” value worked out at 0.183. With ATGACCGA, the “PBM E-score” value came out at 0.169. Take AGAGGCGG: the “PBM E-score” value was -0.109. In the case of CGGGCACC it was -0.0935; in that of AAACTCTG, -0.1. In the case of GGTACCAA it was 0.0788; in that of ATTTTCTA, -0.0481; in that of AAAAGTTC, -0.0456. In the case of TAGTGAAA it was -0.182; in that of CCCTAGGC, -0.279; in that of GGACCTTA, -0.0892. Take CGTACTAG: the “PBM E-score” value came out at 0.342. In the case of AGGGTCGG it was 0.0967; in that of AGAGCACT, -0.0265. As to CGGGTATA, the “PBM E-score” value was found to be 0.16. For TATACCCA, the “PBM E-score” value was -0.00416. As to ATGCGTAA, the “PBM E-score” value is 0.131. Consider CCCTTGCG, for which the “PBM E-score” value was -0.273. The same measure for AGTGTATC: 0.0671; for CGCAAGTC: -0.0333.

On to AGTCCCCG, for which the “PBM E-score” value was -0.0418. Consider AATTGATC, for which the “PBM E-score” value is 0.085.

In the case of AGTGAGAT, the “PBM E-score” value was -0.00562. CCGCTGGC: the “PBM E-score” value was -0.172. With GAAACACC, the “PBM E-score” value stood at 0.108.

As for CATAAGGG, the “PBM E-score” value is -0.134. In the case of AGCCTATA, the “PBM E-score” value was -0.0899. In the case of GCCCACTA, the “PBM E-score” value was -0.274. In the case of AACAACCA it was -0.0609; in that of GGTATGGA, -0.15. As for CTCCATCC, the “PBM E-score” value is -0.224. In the case of ACGCGTAG, the “PBM E-score” value is 0.115.

Regarding CATCACGG, the “PBM E-score” value was -0.0135.

Turning to GGATCTAC, the “PBM E-score” value was -0.0807. For ATACAAGA, the “PBM E-score” value is -0.0503. In the case of CGATGTAA, the “PBM E-score” value came to 0.211.

For the sequence AACTGACC, the “PBM E-score” value was -0.172. For the sequence AAGGTGCT, the “PBM E-score” value was -0.295. Take CCCAATGA: the “PBM E-score” value was -0.302. As to TCGAAAGA, the “PBM E-score” value turned out to be 0.076. With CTAAGCAC, the “PBM E-score” value is -0.177.

As to GACTAGGC, the “PBM E-score” value is 0.00611. With CCATCCTA, the “PBM E-score” value worked out at 0.0862. As to CGGGCCAC, the “PBM E-score” value was -0.174. Take TAGAATCA: the “PBM E-score” value came out at 0.0335.

Turning to ATTAACCC, the “PBM E-score” value worked out at 0.0324.

ACTAGTGA: the “PBM E-score” value was -0.246.

In the case of CTCCCTTA, the “PBM E-score” value was -0.267. The same measure for CCCATGTC: -0.297; for GCCCAAGC: -0.185; for CACGGGAC: 0.0405.

In the case of AATGCGAC, the “PBM E-score” value came out at 0.24. On to CTAAATTA, for which the “PBM E-score” value was 0.0225. For the sequence GCAGCCGC, the “PBM E-score” value was -0.0784.

Regarding GGTCGCCA, the “PBM E-score” value was -0.0319. As for GCTTGGAC, the “PBM E-score” value was -0.237.

Consider AGTAGCGC, for which the “PBM E-score” value turned out to be 0.0676.

With AAAACTTG, the “PBM E-score” value worked out at 0.0503. Turning to CTCGGGGA, the “PBM E-score” value was -0.129. For the sequence AAGACATA, the “PBM E-score” value was -0.0306.

For the sequence AACAAGTC, the “PBM E-score” value was -0.0928. ACATCTAT: the “PBM E-score” value was 0.0869. Consider CTCCAGAA, for which the “PBM E-score” value was -0.0868. Consider AGCACCCC, for which the “PBM E-score” value is -0.107. Regarding GGACATAA, the “PBM E-score” value was -0.0776. With CGCGGGAA, the “PBM E-score” value was found to be 0.132.
